Test results taken from PubChem BioAssay AID686978 (National Center for Advancing Translational Sciences (NCATS), 2013).
About 64,000 (15%) of roughly 420,000 compounds were called active. This list was built around the results that the source calls inconclusive (neither active nor inactive); the mix of calls is not that of the screen. Calls come from the whole dose curve; as a rule, active = well fitted inhibition curve with a large enough effect; inconclusive = small, poorly fitted or top-dose-only effect; inactive = flat fitted curve, though single readings scatter. No potency is given beside an inconclusive call; the fits are too rough.
% is set by controls: 0 for no effect and ±100 for the full control effect; potency is the fitted concentration of half-maximal effect; tags give direction and shape of the fitted curve.

Assay: qHTS for Inhibitors of human tyrosyl-DNA phosphodiesterase 1 (TDP1): qHTS in cells in absence of CPT; note: nearly all actives have a fitted effect of over 55% in size
Conditions: DT40 Tdp1-/- hTDP1 cells, no CPT, ATP luminescence, 48 h; activity change, negative = growth inhibition: at 46.2 µM (top of the series) unless noted
Method in brief: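 Growth of hTDP1-complemented DT40 Tdp1-knockout cells is measured by ATP luminescence after at least 48 hr compound exposure at 37 °C, with DMSO substituting for the 20 nM CPT used in the parallel screen.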
With `Cc1ccc(NC(=O)CN2C(=O)COc3ccc(S(=O)(=O)NC4CCCC4)cc32)cc1N(C)C` the Potency was inconclusive [inhibitor, single point].
With `CCOC(=O)C1CCCN(C(=O)c2ccc3oc(CCc4ccccc4)nc3c2)C1` (configuration not stated) the activity change, negative = growth inhibition was inconclusive: -38.2% [inhibitor].
For `COc1cc(Cl)c(S(=O)(=O)N2CCN(Cc3ccc4c(c3)OCO4)CC2)cc1Cl`, the “activity change, negative = growth inhibition” value was inactive: -6.7%.
In the case of `C=CC(C1=CC(=O)C(OC)=C(OC)C1=O)c1ccccc1` (configuration not stated), the Potency is reported as active: 0.731 µM.
In the case of `CCOC(=O)C1(Cc2cccc(F)c2)CCN(C(=O)c2cnc(C)cn2)CC1`, the “activity change, negative = growth inhibition” value is reported as inactive: -12.1%.
In the case of `O=C1C(=O)N(O)C2CCCCC2N1O` (configuration not stated), the “activity change, negative = growth inhibition” value is reported as inactive: 4.16%.
In the case of `COCCn1c(C)cc(C(=O)CSc2nc3ccccc3c(=O)[nH]2)c1C`, the Potency is reported as active: 14.6 µM.
In the case of `CCOc1cc2[nH]c(=O)n(CCCCCC(=O)NCc3ccco3)c(=O)c2cc1OCC`, the “activity change, negative = growth inhibition” value is reported as inactive: -26%.
With `c1ccc2c(CCC3CCNCC3)c[nH]c2c1` the Potency was inconclusive [inhibitor, partial curve].
For `CCOC(=O)c1c(C)n(C)c2ccc(O)c(CN(CC)CC)c12`, the Potency was inconclusive [inhibitor, partial curve].
For `CC1=C(C(=O)Nc2ccc(Cl)cc2)C(c2ccccc2)n2ncc(C(=O)Nc3ccccc3)c2N1` (configuration not stated), the Potency was active: 14.6 µM.
With `COCCCn1c(C23CC4CC(CC(C4)C2)C3)n[nH]c1=S` the Potency was inconclusive [inhibitor, partial curve, poor fit].
In the case of `COc1ccc(CN2C(=O)CN=C2Nc2ccc(C)cc2C)cc1`, the “activity change, negative = growth inhibition” value is reported as inactive: 5.62%.
With `Cc1cccc(N2CCN(S(=O)(=O)c3ccc4c(c3)NC(=O)CS4)CC2)c1C` the Potency was inconclusive [inhibitor, single point].
In the case of `Cc1cc(C)c2c(c1)c(C)cc1nnc(SCc3ccccc3C#N)n12`, the Potency is reported as inconclusive [inhibitor, single point].
For `C=C1CCN(c2ccc(C(=O)NCCC)cc2[N+](=O)[O-])CC1`, the Potency was active: 16.4 µM.
In the case of `CCOc1ccc(NC2=CC(=O)CCC2)cc1`, the “activity change, negative = growth inhibition” value is reported as inactive: -1.93%.
In the case of `CCOC(=O)C1CCN(C(=O)CNC(=O)c2nn(-c3ccc(OC)c(Cl)c3)c(=O)c3ccccc23)CC1`, the Potency is reported as inconclusive [inhibitor, single point].
For `CCCn1c(N)c(C(=O)CN2CCc3ccccc3C2)c(=O)n(C)c1=O`, the “activity change, negative = growth inhibition” value was inactive: -27%.
For `O=C(O)COc1ccc(NC(=O)c2ccc3c(c2)C(=O)N(CC2CCCO2)C3=O)cc1` (configuration not stated), the “activity change, negative = growth inhibition” value was inactive: -1.99%.
With `Cc1ccc(C)c(-c2ccc(=O)n(Cc3c(F)cccc3Cl)n2)c1` the Potency was inconclusive [inhibitor, single point].
With `CC1CCCC(NC(=O)C2c3ccccc3C(=O)N2Cc2cccs2)C1C` (configuration not stated) the Potency was inconclusive [inhibitor, single point].
For `O=C(COc1ccc(/C=N/NC(=O)c2ccncc2)cc1)Nc1cccc([N+](=O)[O-])c1`, the Potency was inconclusive [inhibitor, single point].
For `O=C(CO/N=C/c1ccc(OC(F)F)cc1)NC1CCCCCC1`, the Potency was inconclusive [inhibitor, single point].
For `O=C(Nc1ccc(F)cc1)C1CCCN(S(=O)(=O)c2ccc3[nH]c(=O)ccc3c2)C1` (configuration not stated), the Potency was inconclusive [inhibitor, partial curve].
With `CCSc1ncc(Cl)c(C(=O)Nc2sc3c(c2C(=O)NCCCOC)CCCC3)n1` the Potency was inconclusive [inhibitor, partial curve].
With `O=C(NCc1nnnn1-c1ccc(F)cc1)c1ccc2ccccc2c1` the Potency was inconclusive [inhibitor, single point].
With `CC(=O)c1cn(CC(=O)Nc2ccc(C)c(C)c2)c2ccccc12` the Potency was inconclusive [inhibitor, single point].
With `CC(=O)N1CCc2c(sc3c2c(=O)n(CCc2ccccc2)c(=O)n3Cc2ccccc2C)C1` the Potency was active: 16.4 µM.
With `O=S1(=O)CC(O)C(N(CCO)C(=S)Nc2ccccc2)C1` (configuration not stated) the “activity change, negative = growth inhibition” value was inactive: -3.35%.
With `CC(C)Sc1ncc(Cl)c(C(=O)Nc2ccc(S(=O)(=O)N3CCCCC3)cc2)n1` the Potency was active: 18.4 µM.
With `Cc1cc(C(=O)CCC(=O)N(C)CC(=O)Nc2ccccc2Br)c(C)s1` the “activity change, negative = growth inhibition” value was inactive: -10.3%.
In the case of `COc1cc(OC)c(/C=C/c2nc3ccccc3o2)c(OC)c1`, the Potency is reported as inconclusive [inhibitor, single point].
In the case of `CCOc1ccc(C=Nc2cccc3ncccc23)cc1`, the “activity change, negative = growth inhibition” value is reported as inactive: -3.3%.
For `COCC(C)n1c(SCC(=O)Nc2cccnc2Cl)nc2ccccc2c1=O` (configuration not stated), the Potency was inconclusive [inhibitor, single point].
For `CCN(CC)S(=O)(=O)c1ccc2c(c1)c(=O)c(C(=O)N1CCN(c3cc(Cl)ccc3C)CC1)cn2C`, the Potency was inconclusive [inhibitor, single point].
In the case of `CCOC(=O)c1cc(NC(=O)C2C3C=CC(O3)C2C(=O)O)cc(C(=O)OCC)c1` (configuration not stated), the “activity change, negative = growth inhibition” value is reported as inactive: -18.5%.
For `CCCCCCCCCCN(CCCCCCCCCC)c1ccccc1`, the Potency was inconclusive [inhibitor, partial curve].
With `O=C(CC1CC2CCC1C2)Nc1nc(-c2ccccn2)cs1` (configuration not stated) the Potency was active: 6.51 µM.
For `O=C(Nc1ccc(NC(=S)NC(=O)c2ccco2)cc1)c1ccc(Br)cc1`, the “activity change, negative = growth inhibition” value was inactive: 7.66%.
For `CC1Cc2cc(S(=O)(=O)N3CCCCC3C)ccc2N1C(=O)C1CCC1` (configuration not stated), the Potency was inconclusive [inhibitor, single point].
In the case of `CCn1c(O)c(N=NC(=O)CNc2cccc(C)c2)c2ccccc21`, the Potency is reported as inconclusive [inhibitor, single point].
In the case of `CCCOc1ccc(/C=N/Nc2cccc([N+](=O)[O-])c2)c(O)c1`, the Potency is reported as inconclusive [inhibitor, single point].
In the case of `COc1ccc(C)cc1NC(=O)C(Sc1nnc2ccccn12)c1ccccc1` (configuration not stated), the Potency is reported as inconclusive [inhibitor, single point].
For `CC(=O)Nc1ccc2sn(-c3ccccc3)c(=O)c2c1`, the Potency was active: 2.06 µM.
For `COc1ccc(-c2ccc(C(C)=O)cc2)cc1[C@H]1[C@H]2C=CC[C@@H](C)[C@@H]2C(=O)N1Cc1ccccc1`, the Potency was active: 16.4 µM.
With `Cc1cc(C(=O)Nc2ccc(C(=O)O)cc2)c(-c2ccccc2)o1` the activity change, negative = growth inhibition was inconclusive: -37% [inhibitor].
In the case of `Cc1cc(N2CCN(C(=O)c3cccs3)CC2)c(F)cc1[N+](=O)[O-]`, the Potency is reported as active: 5.17 µM.
In the case of `Cc1ccc(S(=O)(=O)N2CCN(c3nc(-c4cccs4)cc4ccccc34)CC2)cc1`, the Potency is reported as inconclusive [inhibitor, single point].
For `COc1cc(CN2CCCC(n3cc(C(=O)N4CCCCC4)nn3)C2)cc(OC)c1OC` (configuration not stated), the “activity change, negative = growth inhibition” value was inactive: -1.72%.
With `Cc1cccc(N2CCN(CC(=O)NCc3ccc(Cl)cc3)CC2)c1C` the Potency was active: 4.11 µM.
For `O=C(NC1CCCCC1)c1ccc([N+](=O)[O-])o1`, the Potency was inconclusive [inhibitor, single point].
In the case of `CS(=O)(=O)N(CC(=O)N/N=C/c1ccco1)c1ccccc1Br`, the “activity change, negative = growth inhibition” value is reported as inactive: -4.05%.
In the case of `COC(=O)CNc1c(-c2ccccn2)nc2ccc(Br)cn12`, the “activity change, negative = growth inhibition” value is reported as inactive: -22.8%.
For `CC(=O)N1c2ccc(S(=O)(=O)NCCC(=O)Nc3ncccc3C)cc2CC1C` (configuration not stated), the “activity change, negative = growth inhibition” value was inactive: 18.3%.
With `COc1ccc(C(=O)Nc2cccc(/C=C(\CCC(=O)O)c3nc4ccccc4s3)c2)cc1` the Potency was inconclusive [inhibitor, single point].
In the case of `Fc1cccc(Cn2cc(C(=S)N3CCCCC3)c3ccccc32)c1`, the Potency is reported as inconclusive [inhibitor, single point].
For `O=C(NCc1cccs1)C(=O)NCC(c1ccco1)N1CCN(c2ccccc2F)CC1` (configuration not stated), the Potency was inconclusive [inhibitor, single point].
For `CCOc1ccc(Nc2c(S(=O)(=O)c3ccccc3)cnc3ccc(F)cc23)cc1`, the Potency was inconclusive [inhibitor, single point].
With `CC(C)CC1=NN(C(=O)c2ccco2)C(O)(C(F)(F)F)C1` (configuration not stated) the Potency was inconclusive [inhibitor, single point].
In the case of `CCN(C(=O)COC(=O)c1nc(Cl)ccc1Cl)c1c(N)n(Cc2ccccc2)c(=O)[nH]c1=O`, the “activity change, negative = growth inhibition” value is reported as inactive: -8.51%.
With `Cc1c(NC(=O)c2ccc3c(c2)OCO3)cccc1-c1nc2ncccc2o1` the Potency was inconclusive [inhibitor, partial curve].
With `COc1cccc(OC)c1C(=O)Nc1cccc(-c2ccc3nncn3n2)c1` the Potency was inconclusive [inhibitor, single point].
For `COc1ccc(NC(=O)N(C)C[C@H]2Oc3ccc(NC(=O)NC4CCCCC4)cc3C(=O)N([C@H](C)CO)C[C@@H]2C)cc1`, the “activity change, negative = growth inhibition” value was inactive: 7.71%.
In the case of `c1ccc(COc2ccc(CNCc3cccs3)cc2)cc1`, the Potency is reported as active: 13 µM.
In the case of `CC1(c2nnc(Cc3ccccc3)o2)CC(c2cccc([N+](=O)[O-])c2)=NO1` (configuration not stated), the “activity change, negative = growth inhibition” value is reported as inactive: -24.8%.
In the case of `CC(C)n1ncc2c(C(=O)NCCOc3ccccc3F)cc(C3CC3)nc21`, the Potency is reported as active: 3.26 µM.
In the case of `c1ccc(Cn2nnnc2CN2CCN(Cc3ccc4c(c3)OCO4)CC2)cc1`, the Potency is reported as inconclusive [inhibitor, partial curve, poor fit].
With `Cc1ccccc1CNc1ccc(C(CC(N)=O)NC(=O)c2ccc(Br)cc2)cc1[N+](=O)[O-]` (configuration not stated) the Potency was inconclusive [inhibitor, single point].
For `COC(=O)[C@@]12C[C@@H](CC(=O)NCC3CCCCC3)C(=O)N(Cc3ccc4c(c3)OCO4)C1=CCC(C)(C)C2`, the Potency was inconclusive [inhibitor, partial curve, poor fit].
In the case of `Cc1ccc(-n2nnnc2SCC(=O)NC(C(=O)O)(c2ccccc2)c2ccccc2)cc1C`, the “activity change, negative = growth inhibition” value is reported as inactive: -11%.
In the case of `CC(=O)NCCNc1nc(NCc2ccccc2)nc2ccsc12`, the Potency is reported as inconclusive [inhibitor, single point].
